Laboratory results reported in PubChem BioAssay AID485364 (National Center for Advancing Translational Sciences (NCATS), 2010).
Out of some 360,000 compounds screened, about 11,000 (3.1%) were called active. The shares of active, inactive and inconclusive entries below differ from those in the screen. The call rests on the fitted dose curve; in most records, active means well fitted inhibition curve with a large enough effect; inconclusive means small, poorly fitted or top-dose-only effect; inactive means no such curve, though single readings can be large or run the other way. No potency is given beside an inconclusive call; the fits are too rough.
Further: nearly all actives have a fitted effect of over 60% in size.
On the % scale 0 is the no-effect control and ±100 the full control effect; potency means the concentration at half of the fitted maximal effect; tags describe the fitted curve by direction and shape.

These molecules were tested against Schistosoma mansoni thioredoxin glutathione reductase (TGR) (UniProt Q962Y6) (assay: qHTS Assay for the Inhibitors of Schistosoma Mansoni Peroxiredoxins). Conditions: purified TGR, DTNB reduction, TNB absorbance 405 nm; activity change, negative = inhibition: at 114 µM (top of the series) unless noted.
How it was run: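 First, TGR (20 nM dispensed) and NADPH were mixed with compound. Second, a 15 min room-temperature incubation followed. Third, further NADPH and then DTNB were added to start the reaction. Finally, TNB absorbance was monitored kinetically.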
In the case of `Cc1cc(C(=O)N2CCCC(C(=O)c3cc(F)ccc3F)C2)c(C)o1` (stereo unspecified), the Potency is reported as inconclusive [inhibitor, partial curve]. `CC(=O)Oc1oc(-c2ccccc2)nc1C=Nc1ccccc1` was tested, and the Potency was active: 17.8 µM. For `CCC(=O)Nc1c2c(nn1-c1ccccc1C)CSC2`, the Potency was inconclusive [inhibitor, partial curve]. With `COc1ccc(/C(O)=C2/C(=O)C(=O)N(CCN3CCOCC3)C2c2ccccn2)cc1OC` (stereo unspecified) the Potency was active: 50.1 µM. With `CC(C)N1CCN(c2ccc(O)cc2)CC1` the Potency was inconclusive [inhibitor, partial curve]. For `O=C(CSc1ccc(-c2ccco2)nn1)N1CCCCCC1`, the Potency was active: 25.1 µM. With `CCc1ccc(NC(=O)CCn2cccc2)cc1` the Potency was inconclusive [inhibitor, partial curve]. For `CC(OC(=O)c1ccncc1)C(=O)NC1CCCC1` (stereo unspecified), the “activity change, negative = inhibition” value was inactive: -5%. In the case of `C#CC[N+](C)(C)C(C#Cc1ccccc1)CC=C` (stereo unspecified), the “activity change, negative = inhibition” value is reported as inactive: 2.4%. For `CC(=O)Nc1nc2n(n1)C(c1ccc(F)cc1)C=C(c1ccccc1)N2` (stereo unspecified), the Potency was active: 3.16 µM. With `N#CC(=C=[N-])c1nc2ccccc2nc1-[n+]1cccc(NC(=O)c2cccs2)c1` the Potency was active: 39.8 µM. For `CCC(=O)Nc1cccc(C(=O)/C=C/c2ccccc2)c1`, the Potency was inconclusive [inhibitor, single point]. In the case of `CC(=O)/C(=C/c1ccccc1)C(=O)Nc1ccccc1C`, the Potency is reported as active: 44.7 µM. For `Nc1nc(CN2CCN(Cc3ccccc3)CC2)nc(Nc2ccccc2)n1`, the Potency was inconclusive [inhibitor, partial curve]. `CCCNc1cc(C)c(C#N)c2nc3ccccc3n12` was tested, and the “activity change, negative = inhibition” value was inactive: 5.68%. With `O=C(NCCCO)c1ccc2nc(-c3ccco3)c(-c3ccco3)nc2c1` the Potency was active: 2.51 µM. For `CCOc1ccc(C(O)C(CN2CCOCC2)c2ccccc2)cc1` (stereo unspecified), the “activity change, negative = inhibition” value was inactive: 0.168%. `O=C1C(Cc2ccccc2O)NC(=S)N1c1ccccc1` (stereo unspecified) was tested, and the Potency was inconclusive [inhibitor, single point]. `O=C(N/N=C/c1c(O)n(-c2ccccc2Cl)c(=O)c2ccccc12)C1COc2ccccc2O1` (stereo unspecified) was tested, and the Potency was inconclusive [inhibitor, partial curve]. With `C/C=C/C=C\C(=O)Nc1cccc(C2=NOC3(C2)C[C@@H](C(N)=O)N(C(=O)c2cc([N+](=O)[O-])cc([N+](=O)[O-])c2C)C3)c1` (stereo partly specified) the Potency was active: 2.82 µM. `CCS(=O)(=O)Nc1cccc(C2=NN(S(C)(=O)=O)C(c3ccccc3)C2)c1` (stereo unspecified) was tested, and the “activity change, negative = inhibition” value was inactive: -12.3%. In the case of `COC(=O)C1=C(C)N(c2cccc3ccccc23)C(=O)C1`, the Potency is reported as inconclusive [inhibitor, partial curve]. In the case of `CCN=c1scc(C)n1/N=C/c1cc(Br)c(O)c(Br)c1`, the Potency is reported as inconclusive [inhibitor, partial curve]. With `O=C(c1ccco1)N1CCN(C(=O)c2cccc3c2C(=O)N(C2CCCCC2)C3)CC1` the Potency was active: 50.1 µM. In the case of `C[C@]12CC[C@@H]3c4cc(O)c(O)cc4CC[C@H]3[C@@H]1CC[C@@H]2O`, the Potency is reported as inconclusive [inhibitor, full curve, poor fit]. With `Cc1c(C2=CCN(S(=O)(=O)c3ccc(CC(C)C)cc3)CC2)c2ccccc2n1CC(=O)N1CCCC1` the Potency was inconclusive [inhibitor, partial curve]. For `COc1ccc(C(=O)c2c(N)sc3c2CCN(C)C3)cc1`, the Potency was inconclusive [inhibitor, partial curve, poor fit]. `Cc1cccnc1Nc1nc(-c2ccc(O)c(O)c2)cs1` was tested, and the Potency was inconclusive [inhibitor, full curve]. With `COc1c(C(O)CC(C)C)ccc2c1C(=O)OCc1cc(C)cc(O)c1O2` (stereo unspecified) the Potency was inconclusive [inhibitor, partial curve]. `CC(C)c1ccc(S(=O)(=O)/N=C2/C=C(Sc3ncn[nH]3)C(=O)c3ccccc32)cc1` was tested, and the Potency was active: 0.282 µM. In the case of `Cc1noc(NS(=O)(=O)c2ccc(NC(=O)C(C)C)cc2)c1C`, the Potency is reported as active: 25.1 µM. In the case of `CC(=O)N1CCc2cc(N=NC3=C(O)CCCC3=O)ccc21`, the Potency is reported as inconclusive [inhibitor, single point]. In the case of `COc1ccccc1CNC(=O)C1CCCN(c2nnc(-n3c(C)ccc3C)s2)C1` (stereo unspecified), the Potency is reported as inconclusive [inhibitor, partial curve]. With `O=C(NCc1ccccn1)C1CCN(S(=O)(=O)c2ccccc2)CC1` the “activity change, negative = inhibition” value was inactive: 26.8%. `COc1ccc(NC(=O)c2cc(-c3ccco3)nc3ccccc23)cc1S(=O)(=O)N1CCOCC1` was tested, and the Potency was active: 7.94 µM. In the case of `Cc1cc(/C=C2\C(=O)NC(=O)N(c3cccc(F)c3)C2=O)c(C)n1-c1cc(C(=O)O)cc(C(=O)O)c1`, the Potency is reported as inconclusive [inhibitor, full curve]. For `Cn1c(=O)nc2n(-c3ccc(Cl)c(Cl)c3)c3cc(Cl)ccc3cc-2c1=O`, the “activity change, negative = inhibition” value was inactive: -4.94%. `O=C(Cn1nnc(-c2ccc(F)cc2)n1)OCC(=O)c1ccccc1` was tested, and the Potency was active: 10 µM. In the case of `CC(C)C(NC(=O)OCc1ccccc1)C(=O)NC(Cc1ccc(O)cc1)C(=O)O` (stereo unspecified), the Potency is reported as inconclusive [inhibitor, partial curve]. `O=S1(=O)CCOCCN1Cc1ccc(Cl)cc1Cl` was tested, and the Potency was inconclusive [inhibitor, single point]. For `Cc1ccc(NC(=O)CN(C)C(=O)C(c2ccccc2)c2ccccc2)cc1`, the Potency was inconclusive [inhibitor, single point]. `COc1ccc(C2=NS(=O)(=O)N(C)C(C(=O)NCc3ccco3)=C2)cc1OC` was tested, and the Potency was inconclusive [inhibitor, partial curve]. In the case of `Cc1ccc(NC(=O)Cn2c(=O)n(CCCCC(=O)NCCc3ccccc3)c(=O)c3ccccc32)c(C)c1`, the Potency is reported as inconclusive [inhibitor, single point]. `Cn1cnc([N+](=O)[O-])c1Sc1ncn[nH]1` was tested, and the Potency was active: 2.82 µM. With `Cc1nc(C)c(C(=O)Nc2cccc(C)c2C)s1` the Potency was inconclusive [inhibitor, single point]. In the case of `CC(C)(C)c1ccc2c(c1)OC(C(=O)N/N=C/c1ccc([N+](=O)[O-])o1)CO2` (stereo unspecified), the Potency is reported as inconclusive [inhibitor, partial curve].
